{
  "source": "the supplement of paper PMC4604168 (melanoma cell lines)",
  "note": "Some of the results follow. Many values rest on one well or one pass, so single values are uncertain.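 Note: cell number obtained by counting DAPI-stained nuclei in high-throughput microscope images with image analysis software, screen run in 1,536-well plates.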",
  "data": [
    {"test_system": "MZ2-MEL", "assay": "cell count relative to DMSO control; melanoma cells; higher = more viable cells", "details": "library dose: low library concentration; 72 h", "units": {"cell count": "%"}, "values": [
      {"smiles": "Cn1c(Nc2ccc(C(F)(F)F)cc2)nc2cc(Oc3ccnc(-c4ncc(C(F)(F)F)[nH]4)c3)ccc21", "note": "+ CCCCCCCCCCCC1=C(O)C(=O)C=C(O)C1=O [Embelin] (first compound 0.08 µM, partner dose 1.2 µM)", "cell count": 83.7},
      {"smiles": "O=C(CCCCCCC(=O)Nc1ccccc1)NO", "note": "[vorinostat] + O=C(O)C(=O)Nc1sc2c(c1C(=O)O)CCNC2 [TCS401] (first compound 0.08 µM, partner dose 1.66667 µM)", "cell count": 92.6},
      {"smiles": "O=C(CCCCCCC(=O)Nc1ccccc1)NO", "note": "[vorinostat] + CCc1ccc(CCOc2ccc(CC3SC(=O)NC3=O)cc2)nc1 [pioglitazone] (first compound 0.08 µM, partner dose 2 µM)", "cell count": 103},
      {"smiles": "C#Cc1cccc(Nc2ncnc3cc(OCCOC)c(OCCOC)cc23)c1", "note": "[erlotinib] + O=C(Nc1ccccc1)c1cc([N+](=O)[O-])ccc1Cl [GW9662] (first compound 0.8 µM, partner dose 2 µM)", "cell count": 91.8},
      {"smiles": "C#Cc1cccc(Nc2ncnc3cc(OCCOC)c(OCCOC)cc23)c1", "note": "[erlotinib] + Oc1nc(-c2ccc(C(F)(F)F)cc2)nc2c1CSCC2 [XAV939] (first compound 0.8 µM, partner dose 2 µM)", "cell count": 92.8},
      {"smiles": "COCC[n+]1c2c(n(Cc3cnccn3)c1C)C(=O)c1ccccc1C2=O", "note": "+ CCc1ccc(CCOc2ccc(CC3SC(=O)NC3=O)cc2)nc1 [pioglitazone] (first compound 0.0004 µM, partner dose 2 µM)", "cell count": 56.2},
      {"smiles": "Cn1c(Nc2ccc(C(F)(F)F)cc2)nc2cc(Oc3ccnc(-c4ncc(C(F)(F)F)[nH]4)c3)ccc21", "note": "+ N#Cc1c(O)c2c(-c3ccc(-c4ccccc4O)cc3)csc2[nH]c1=O [A769662] (first compound 0.08 µM, partner dose 2 µM)", "cell count": 92.6},
      {"smiles": "O=C(CCCCCCC(=O)Nc1ccccc1)NO", "note": "[vorinostat] + COc1ccc(-c2ccc3c(N4CCOCC4)nc(N4C[C@@H](C)O[C@@H](C)C4)nc3n2)cc1CO [KU0063794] (first compound 0.08 µM, partner dose 0.02 µM)", "cell count": 89.8},
      {"smiles": "C#Cc1cccc(Nc2ncnc3cc(OCCOC)c(OCCOC)cc23)c1", "note": "[erlotinib] + N#Cc1c(O)c2c(-c3ccc(-c4ccccc4O)cc3)csc2[nH]c1=O [A769662] (first compound 0.8 µM, partner dose 2 µM)", "cell count": 93.9},
      {"smiles": "COCC[n+]1c2c(n(Cc3cnccn3)c1C)C(=O)c1ccccc1C2=O", "note": "+ COC(=O)c1sccc1S(=O)(=O)Nc1ccc(Nc2ccccc2)cc1OC [GSK0660] (first compound 0.0004 µM, partner dose 1 µM)", "cell count": 50.7},
      {"smiles": "COCC[n+]1c2c(n(Cc3cnccn3)c1C)C(=O)c1ccccc1C2=O", "note": "+ Cn1cc(/C=C2\\C(=O)Nc3cccnc32)c2ccccc21 [GW441756] (first compound 0.0004 µM, partner dose 0.4 µM)", "cell count": 51.7},
      {"smiles": "Cn1c(Nc2ccc(C(F)(F)F)cc2)nc2cc(Oc3ccnc(-c4ncc(C(F)(F)F)[nH]4)c3)ccc21", "note": "+ CCc1ccc(CCOc2ccc(CC3SC(=O)NC3=O)cc2)nc1 [pioglitazone] (first compound 0.08 µM, partner dose 2 µM)", "cell count": 94},
      {"smiles": "COCC[n+]1c2c(n(Cc3cnccn3)c1C)C(=O)c1ccccc1C2=O", "note": "+ CC(C)CCN1c2nc(Nc3cc(F)c(O)c(F)c3)ncc2N(C)C(=O)C1C [BID1870] (first compound 0.0004 µM, partner dose 0.2 µM)", "cell count": 51.8},
      {"smiles": "O=C(CCCCCCC(=O)Nc1ccccc1)NO", "note": "[vorinostat] + CC(C)CCN1c2nc(Nc3cc(F)c(O)c(F)c3)ncc2N(C)C(=O)C1C [BID1870] (first compound 0.08 µM, partner dose 0.2 µM)", "cell count": 105},
      {"smiles": "C#Cc1cccc(Nc2ncnc3cc(OCCOC)c(OCCOC)cc23)c1", "note": "[erlotinib] + O=C(O)C(=O)Nc1sc2c(c1C(=O)O)CCNC2 [TCS401] (first compound 0.8 µM, partner dose 1.66667 µM)", "cell count": 90.2},
      {"smiles": "C#Cc1cccc(Nc2ncnc3cc(OCCOC)c(OCCOC)cc23)c1", "note": "[erlotinib] + COc1ccc2c(c1)CCC1C2CCC2(C)C(NCCCCCCN3C(=O)C=CC3=O)CCC12 [U73122] (first compound 0.8 µM, partner dose 0.4 µM)", "cell count": 93.4},
      {"smiles": "C#Cc1cccc(Nc2ncnc3cc(OCCOC)c(OCCOC)cc23)c1", "note": "[erlotinib] + Cc1cc([N+](=O)[O-])ccc1NS(=O)(=O)c1cc(Cl)ccc1Cl [FH535] (first compound 0.8 µM, partner dose 1 µM)", "cell count": 89.2},
      {"smiles": "COCC[n+]1c2c(n(Cc3cnccn3)c1C)C(=O)c1ccccc1C2=O", "note": "+ COc1cc2ncnc(Nc3ccc(Oc4ccccc4)cc3)c2cc1OC [SrcI1] (first compound 0.0004 µM, partner dose 2 µM)", "cell count": 54.1},
      {"smiles": "Nc1cccc2c1CN(C1CCC(=O)NC1=O)C2=O", "note": "(stereo not given) [lenalidomide] + O=c1cc(-c2cccc3c2Sc2ccccc2S3)oc(N2CCOCC2)c1 [KU55933] (first compound 1 µM, partner dose 1 µM)", "cell count": 104},
      {"smiles": "Nc1cccc2c1CN(C1CCC(=O)NC1=O)C2=O", "note": "(stereo not given) [lenalidomide] + COc1ccc(-c2ccc3c(N4CCOCC4)nc(N4C[C@@H](C)O[C@@H](C)C4)nc3n2)cc1CO [KU0063794] (first compound 1 µM, partner dose 0.02 µM)", "cell count": 98.3},
      {"smiles": "Nc1cccc2c1CN(C1CCC(=O)NC1=O)C2=O", "note": "(stereo not given) [lenalidomide] + Cc1cc([N+](=O)[O-])ccc1NS(=O)(=O)c1cc(Cl)ccc1Cl [FH535] (first compound 1 µM, partner dose 1 µM)", "cell count": 98},
      {"smiles": "Nc1cccc2c1CN(C1CCC(=O)NC1=O)C2=O", "note": "(stereo not given) [lenalidomide] + COc1cc2ncnc(Nc3ccc(Oc4ccccc4)cc3)c2cc1OC [SrcI1] (first compound 1 µM, partner dose 2 µM)", "cell count": 91.6},
      {"smiles": "Cn1c(Nc2ccc(C(F)(F)F)cc2)nc2cc(Oc3ccnc(-c4ncc(C(F)(F)F)[nH]4)c3)ccc21", "note": "+ COc1ccc2c(c1)CCC1C2CCC2(C)C(NCCCCCCN3C(=O)C=CC3=O)CCC12 [U73122] (first compound 0.08 µM, partner dose 0.4 µM)", "cell count": 69.3},
      {"smiles": "Cn1c(Nc2ccc(C(F)(F)F)cc2)nc2cc(Oc3ccnc(-c4ncc(C(F)(F)F)[nH]4)c3)ccc21", "note": "+ O=C(O)C(=O)Nc1sc2c(c1C(=O)O)CCNC2 [TCS401] (first compound 0.08 µM, partner dose 1.66667 µM)", "cell count": 84.7},
      {"smiles": "O=C(CCCCCCC(=O)Nc1ccccc1)NO", "note": "[vorinostat] + Oc1cc(-c2nc(-c3ccccc3)[nH]c2-c2ccncc2)ccc1Cl [L779450] (first compound 0.08 µM, partner dose 0.2 µM)", "cell count": 81.8},
      {"smiles": "O=C(CCCCCCC(=O)Nc1ccccc1)NO", "note": "[vorinostat] + O=C1NC(=O)/C(=C/c2ccc(-c3ccc(F)cc3O)o2)S1 [AS252424] (first compound 0.08 µM, partner dose 1 µM)", "cell count": 94.7},
      {"smiles": "COCC[n+]1c2c(n(Cc3cnccn3)c1C)C(=O)c1ccccc1C2=O", "note": "+ Oc1nc(-c2ccc(C(F)(F)F)cc2)nc2c1CSCC2 [XAV939] (first compound 0.0004 µM, partner dose 2 µM)", "cell count": 59.3},
      {"smiles": "C#Cc1cccc(Nc2ncnc3cc(OCCOC)c(OCCOC)cc23)c1", "note": "[erlotinib] + CCN(CC)CCCCNc1ncc2cc(-c3cc(OC)cc(OC)c3)c(NC(=O)NC(C)(C)C)nc2n1 [PD173074] (first compound 0.8 µM, partner dose 0.1 µM)", "cell count": 93.5},
      {"smiles": "COCC[n+]1c2c(n(Cc3cnccn3)c1C)C(=O)c1ccccc1C2=O", "note": "+ c1cc(-c2cnn3cc(-c4ccc(OCCN5CCCCC5)cc4)cnc23)ccn1 [Dorsomorphin] (first compound 0.0004 µM, partner dose 0.4 µM)", "cell count": 41.5},
      {"smiles": "O=C(CCCCCCC(=O)Nc1ccccc1)NO", "note": "[vorinostat] + O=C(Nc1ccccc1)c1cc([N+](=O)[O-])ccc1Cl [GW9662] (first compound 0.08 µM, partner dose 2 µM)", "cell count": 95.8},
      {"smiles": "Nc1cccc2c1CN(C1CCC(=O)NC1=O)C2=O", "note": "(stereo not given) [lenalidomide] + O=C(O)C(=O)Nc1sc2c(c1C(=O)O)CCNC2 [TCS401] (first compound 1 µM, partner dose 1.66667 µM)", "cell count": 100},
      {"smiles": "COCC[n+]1c2c(n(Cc3cnccn3)c1C)C(=O)c1ccccc1C2=O", "note": "+ O=c1cc(-c2cccc3c2Sc2ccccc2S3)oc(N2CCOCC2)c1 [KU55933] (first compound 0.0004 µM, partner dose 1 µM)", "cell count": 54.7},
      {"smiles": "Nc1cccc2c1CN(C1CCC(=O)NC1=O)C2=O", "note": "(stereo not given) [lenalidomide] + N#Cc1c(O)c2c(-c3ccc(-c4ccccc4O)cc3)csc2[nH]c1=O [A769662] (first compound 1 µM, partner dose 2 µM)", "cell count": 97.7},
      {"smiles": "COCC[n+]1c2c(n(Cc3cnccn3)c1C)C(=O)c1ccccc1C2=O", "note": "+ CCCCCCCCCCCC1=C(O)C(=O)C=C(O)C1=O [Embelin] (first compound 0.0004 µM, partner dose 1.2 µM)", "cell count": 61.2},
      {"smiles": "Cn1c(Nc2ccc(C(F)(F)F)cc2)nc2cc(Oc3ccnc(-c4ncc(C(F)(F)F)[nH]4)c3)ccc21", "note": "+ Cc1cc([N+](=O)[O-])ccc1NS(=O)(=O)c1cc(Cl)ccc1Cl [FH535] (first compound 0.08 µM, partner dose 1 µM)", "cell count": 64.2}
    ]}
  ]
}
